The BET-seq Pho4 binding data (Le et al. 2018)
This is one part of the list. These are noisy estimates, calculated here from bound and input reads.

target: T1, Pho4 (S. cerevisiae) (UniProt P07270); assay: relative binding free energy (BET-seq); higher = weaker binding; details: reference: library average
T1 sequence: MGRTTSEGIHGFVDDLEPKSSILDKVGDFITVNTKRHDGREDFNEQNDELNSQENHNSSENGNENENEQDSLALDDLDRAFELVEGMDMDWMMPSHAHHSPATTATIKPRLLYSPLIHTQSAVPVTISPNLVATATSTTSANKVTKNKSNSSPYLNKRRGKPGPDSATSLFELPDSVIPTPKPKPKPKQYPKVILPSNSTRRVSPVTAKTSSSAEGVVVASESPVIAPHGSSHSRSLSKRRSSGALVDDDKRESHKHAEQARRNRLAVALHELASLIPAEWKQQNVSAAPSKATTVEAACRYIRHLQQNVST

Row | Sequence | relative binding free energy [kcal/mol]
1 | GCATGCACGTGAGTGT | 0.07
2 | GATTACACGTGTGGGA | 0.45
3 | TTTAGCACGTGTACGG | -0.08
4 | AGAGTCACGTGGCGGT | -0.05
5 | GAAATCACGTGGGGCA | 0.34
6 | GTGTCCACGTGTGATG | 0.13
7 | TTGTACACGTGCTTTA | -0.08
8 | AGCATCACGTGGCGGG | 0.08
9 | AAGGTCACGTGGTTAA | -0.01
10 | TTTTTCACGTGTTGTA | 0.29
11 | AAGTTCACGTGGCAGG | 0.17
12 | AGGGTCACGTGATAGA | 0.26
13 | TGTGCCACGTGGGGGA | -0.19
14 | ATATGCACGTGGGGAG | -0.2
15 | CGTGTCACGTGTGGCG | 0.03
16 | TATTACACGTGAAGAG | 0.41
17 | TGTTCCACGTGGAATT | 0.27
18 | GTTAACACGTGGTTTA | 0.1
19 | TCCGGCACGTGCTGGT | 0
20 | GGTTTCACGTGGTCAC | 0.34
21 | AAATGCACGTGGTGTA | -0.05
22 | TTAATCACGTGGACTT | 0.16
23 | TTTGTCACGTGTTGAA | 0.04

Row | Sequence | relative binding free energy [kcal/mol]
24 | TGCTGCACGTGTTTTG | -0.02
25 | CAGTTCACGTGAGGTT | 0.47
26 | AGGAGCACGTGTGAGC | 0.06
27 | TTAGTCACGTGGTCAT | -0.02
28 | GTTGTCACGTGTGTTG | 0.22
29 | CCGTGCACGTGGGTTG | -0.25
30 | TGTAGCACGTGAAGAG | 0.1
31 | CTGGGCACGTGCCGGT | -0.2
32 | GTGGACACGTGCCGGT | -0.08
33 | AGAGACACGTGGGAGG | -0.12
34 | GGTTTCACGTGGGTGG | 0.28
35 | TCGGTCACGTGGACTT | 0.18
36 | TAGATCACGTGTCGGG | 0.08
37 | AAGTTCACGTGTTGTA | 0.31
38 | TTGTTCACGTGTGCAT | 0.35
39 | TGAATCACGTGTTTGA | 0.29
40 | ATCTTCACGTGTTGCT | 0.27
41 | GAGGGCACGTGATTTG | 0
42 | GGGTGCACGTGGGTTA | -0.1
43 | GAGTTCACGTGTGAAT | 0.52
44 | GTTATCACGTGGGATC | 0.22
45 | GATAACACGTGGATAT | 0.17
46 | GCTGTCACGTGCAGGG | 0.06

Row | Sequence | relative binding free energy [kcal/mol]
47 | GGGATCACGTGGTCAT | 0.06
48 | ACATGCACGTGGGGGG | -0.27
49 | CTTTGCACGTGCGTAG | -0.03
50 | ACTGGCACGTGGGATG | -0.3
51 | TGACTCACGTGGGTTT | 0.15
52 | GGTTACACGTGACATG | 0.21
53 | TGCGGCACGTGCGTAG | -0.18
54 | GAGAGCACGTGTAGCG | -0.01
55 | GTGGCCACGTGTCTTT | 0.12
56 | GGTTCCACGTGATGTA | 0.16
57 | TTTCTCACGTGTTTAT | 0.17
58 | CGGCGCACGTGTAGTG | -0.16
59 | GTTGGCACGTGATGGG | 0.12
60 | GCGGACACGTGGTGGT | 0
61 | AAAGGCACGTGGTGAA | -0.22
62 | TAGTCCACGTGGTGTG | -0.07
63 | GTAAACACGTGTATTG | 0.15
64 | GTGCGCACGTGGGATT | -0.16
65 | CGGGCCACGTGGGGCT | -0.37
66 | AATGGCACGTGATGGA | -0.07
67 | GACTACACGTGTTGGG | 0.14
68 | AGGTGCACGTGGCAAT | -0.13
69 | TTATTCACGTGAGGGA | 0.23

Row | Sequence | relative binding free energy [kcal/mol]
70 | GATGGCACGTGGTCTG | -0.16
71 | AAGTTCACGTGTTAAA | 0.27
72 | AGAATCACGTGGGTTC | 0.1
73 | TGTATCACGTGCGGCA | 0.05
74 | GGATTCACGTGGCTGT | 0.17
75 | ATTTTCACGTGGAGAT | 0.19
76 | TGCTGCACGTGGTGTA | -0.28
77 | TCAGACACGTGGGGCT | -0.07
78 | TTATGCACGTGGGACT | -0.17
79 | ATTAGCACGTGAAGAG | 0.16
80 | TGTGTCACGTGCCGTG | -0.11
81 | TGTCGCACGTGAAGTG | 0.19
82 | TAGTACACGTGTTGAG | 0.09
83 | TTGGTCACGTGAAAAC | 0.53
84 | GATTACACGTGTAGTG | 0.19
85 | GGGGGCACGTGAGTTC | 0.11
86 | TCATTCACGTGGTTGT | 0.44
87 | TGATGCACGTGTGGCG | 0.12
88 | GGGCACACGTGAGGAG | 0.3
89 | GGCTTCACGTGATGTG | 0.38
90 | GGGTGCACGTGCGGAG | -0.08
91 | ATTGTCACGTGAATTA | 0.26
92 | GTAGACACGTGTTTTG | 0.1

Row | Sequence | relative binding free energy [kcal/mol]
93 | TGTTTCACGTGCAGGT | 0.3
94 | CGTTACACGTGGGGTG | -0.01
95 | GATATCACGTGGATAG | 0.14
96 | TATGTCACGTGTGAGT | 0.22
97 | TGATGCACGTGAGCGT | 0.28
98 | AAGCGCACGTGCGAGG | 0.04
99 | TTTTGCACGTGGGAGA | -0.01
100 | TGGTTCACGTGCTGGA | 0.26
101 | CTTTTCACGTGGATAG | 0.35
102 | GTGATCACGTGAACTT | 0.4
103 | GGAGTCACGTGACTTG | 0.28
104 | AACTTCACGTGAGGTG | 0.27
105 | ATGGGCACGTGTAAGA | 0.05
106 | TTTTACACGTGGTGTT | 0.03
107 | GGGAGCACGTGGATTA | -0.03
108 | CTGTACACGTGGGTCG | 0.01
109 | GGTAGCACGTGATATG | 0.05
110 | GTTGACACGTGCTCTG | 0.15
111 | TGCTTCACGTGAGTTG | 0.32
112 | GGGTTCACGTGGGAAA | 0.34
113 | GAGCGCACGTGGGGGG | -0.18
114 | AGATCCACGTGTATGT | -0.01
115 | AGAGACACGTGTGTGG | -0.1
